Measured values reported in patent publication US11999759B2, “Boronic acid derivatives and therapeutic uses thereof” (Qpex Biopharma, Inc., priority 2016, dated 2024).
At least one read-out could not be matched to a standard name with certainty.

How the values were obtained:
ECL1002 [1] = assay: Tigemonam potentiation (MPC@4), strain ECL1002; format: cell-based; details: minimum BLI concentration inhibiting growth with tigemonam at 4 ag/mL (so in the source); BLI up to 40
ECL1002 [2] = assay: Aztreonam potentiation (MPC@4), strain ECL1002; details: minimum BLI concentration inhibiting growth with aztreonam at 4 μg/mL; BLI up to 40 μg/mL
KP1086 (OXA-48) = assay: Biapenem potentiation (MPC@1), strain KP1086; format: cell-based; details: minimum BLI concentration inhibiting growth with biapenem at 1 (MPC@1); BLI up to 40
Excerpt: (§1) Biapenem was present in the test medium at 1 Dg/mL. […] Table 4 summarizes the BLI potency of biapenem potentiation (MPC@1) for two strains overexpressing class A (KPC) and class D (OXA-48) carbapenemases. Biapenem MIC for each strain is also shown.

ec308 (SHV-5) [3] = assay: Tigemonam potentiation (MPC@4), strain ec308; format: cell-based; details: minimum BLI concentration inhibiting growth with tigemonam at 4 ag/mL (so in the source); BLI up to 40
KP1005 (CTX-M-14) [4] = assay: Aztreonam potentiation (MPC@4), strain KP1005; details: minimum BLI concentration inhibiting growth with aztreonam at 4 μg/mL; BLI up to 40 μg/mL
ec308 (SHV-5) [5] = assay: Aztreonam potentiation (MPC@4), strain ec308; details: minimum BLI concentration inhibiting growth with aztreonam at 4 μg/mL; BLI up to 40 μg/mL
EC1010 (CMY-6) [6] = assay: Tigemonam potentiation (MPC@4), strain EC1010; format: cell-based; details: minimum BLI concentration inhibiting growth with tigemonam at 4 ag/mL (so in the source); BLI up to 40
KP1010 (SHV-12) [7] = assay: Tigemonam potentiation (MPC@4), strain KP1010; details: minimum BLI concentration inhibiting growth with tigemonam at 4 ag/mL (so in the source); BLI up to 40
KP1081 (NDM-1) = assay: Biapenem potentiation (MPC@1), strain KP1081; format: cell-based; details: minimum BLI concentration inhibiting growth with biapenem at 1 (MPC@1); BLI up to 40
KP1004 (KPC-2) [8] = assay: Aztreonam potentiation (MPC@4), strain KP1004; details: minimum BLI concentration inhibiting growth with aztreonam at 4 μg/mL; BLI up to 40 μg/mL
KP1010 (SHV-12) [9] = assay: Aztreonam potentiation (MPC@4), strain KP1010; details: minimum BLI concentration inhibiting growth with aztreonam at 4 μg/mL; BLI up to 40 μg/mL
KP1005 (CTX-M-14) [10] = assay: Tigemonam potentiation (MPC@4), strain KP1005; details: minimum BLI concentration inhibiting growth with tigemonam at 4 ag/mL (so in the source); BLI up to 40
ec302 (TEM-10) [11] = assay: Aztreonam potentiation (MPC@4), strain ec302; details: minimum BLI concentration inhibiting growth with aztreonam at 4 μg/mL; BLI up to 40 μg/mL
ec302 (TEM-10) [12] = assay: Tigemonam potentiation (MPC@4), strain ec302; format: cell-based; details: minimum BLI concentration inhibiting growth with tigemonam at 4 ag/mL (so in the source); BLI up to 40
KP1009 (CTX-M-15) [13] = assay: Tigemonam potentiation (MPC@4), strain KP1009; details: minimum BLI concentration inhibiting growth with tigemonam at 4 ag/mL (so in the source); BLI up to 40
KP1054 (VIM-1) = assay: Biapenem potentiation (MPC@1), strain KP1054; format: cell-based; details: minimum BLI concentration inhibiting growth with biapenem at 1 (MPC@1); BLI up to 40
KP1004 (KPC-2) [14] = assay: Biapenem potentiation (MPC@1), strain KP1004; format: cell-based; details: minimum BLI concentration inhibiting growth with biapenem at 1 (MPC@1); BLI up to 40
Excerpt: as §1

EC1010 (CMY-6) [15] = assay: Aztreonam potentiation (MPC@4), strain EC1010; details: minimum BLI concentration inhibiting growth with aztreonam at 4 μg/mL; BLI up to 40 μg/mL
KP1009 (CTX-M-15) [16] = assay: Aztreonam potentiation (MPC@4), strain KP1009; details: minimum BLI concentration inhibiting growth with aztreonam at 4 μg/mL; BLI up to 40 μg/mL
AB1054 (OXA-23) = assay: Meropenem potentiation (MPC@8), strain AB1054; format: cell-based, Acinetobacter baumannii; details: minimum BLI concentration inhibiting growth with meropenem at 8 (MPC@8); BLI up to 20

Row | Compound | TIG MPC4 ECL1002 (ECL1002 [1]) | AZT MPC4 ECL1002 (ECL1002 [2]) | BPM MPC1 OXA-48 KP1086 (KP1086 (OXA-48)) | TIG MPC4 SHV-5 ec308 (ec308 (SHV-5) [3]) | AZT MPC4 CTX-M-14 KP1005 (KP1005 (CTX-M-14) [4]) | AZT MPC4 SHV-5 ec308 (ec308 (SHV-5) [5]) | TIG MPC4 CMY-6 EC1010 (EC1010 (CMY-6) [6]) | TIG MPC4 SHV-12 KP1010 (KP1010 (SHV-12) [7]) | BPM MPC1 KP1081 NDM-1 (KP1081 (NDM-1)) | AZT MPC4 KPC-2 KP1004 (KP1004 (KPC-2) [8]) | AZT MPC4 SHV-12 KP1010 (KP1010 (SHV-12) [9]) | TIG MPC4 CTX-M-14 KP1005 (KP1005 (CTX-M-14) [10]) | AZT MPC4 TEM-10 ec302 (ec302 (TEM-10) [11]) | TIG MPC4 TEM-10 ec302 (ec302 (TEM-10) [12]) | TIG MPC4 CTX-M-15 KP1009 (KP1009 (CTX-M-15) [13]) | BPM MPC1 KP1054 VIM-1 (KP1054 (VIM-1)) | BPM MPC1 KP1004 KPC-2 (KP1004 (KPC-2) [14]) | AZT MPC4 CMY-6 EC1010 (EC1010 (CMY-6) [15]) | AZT MPC4 CTX-M-15 KP1009 (KP1009 (CTX-M-15) [16]) | MPM MPC8 AB1054 OXA-23 (AB1054 (OXA-23))
1 | O=C(O)[C@H]1/C(=C/CO)O[C@@H]2CC(=O)N21 [Clavulanic Acid, reference compound] | Z (Z = MPC@4 > 20 μg/mL) | Z (Z = MPC@4 > 20 μg/mL) | Z (Z = MPC@1 > 20 μg/mL) | X (X = MPC@4 ≤ 5 μg/mL) | X (X = MPC@4 ≤ 5 μg/mL) | X (X = MPC@4 ≤ 5 μg/mL) | Z (Z = MPC@4 > 20 μg/mL) | X (X = MPC@4 ≤ 5 μg/mL) | Z (Z = MPC@1 > 20 μg/mL) | Z (Z = MPC@4 > 20 μg/mL) | X (X = MPC@4 ≤ 5 μg/mL) | X (X = MPC@4 ≤ 5 μg/mL) | X (X = MPC@4 ≤ 5 μg/mL) | X (X = MPC@4 ≤ 5 μg/mL) | X (X = MPC@4 ≤ 5 μg/mL) | Z (Z = MPC@1 > 20 μg/mL) | Y (Y = 5 μg/mL < MPC@1 ≤ 20 μg/mL) | Z (Z = MPC@4 > 20 μg/mL) | X (X = MPC@4 ≤ 5 μg/mL) | –
2 | COc1ccc2c(c1C(=O)O)OB(O)[C@@H]1COC[C@H]21 [Compound 23, (3aS,9bS)-4,4-dihydroxy-7-methoxy-1,3,3a,9b-tetrahydrofuro[3,4-c][1,2]benzoxaborinine-6-carboxylic acid] | – | – | – | Y (Y = 5 μg/mL < MPC@4 ≤ 20 μg/mL) | X (X = MPC@4 ≤ 5 μg/mL) | X (X = MPC@4 ≤ 5 μg/mL) | – | X (X = MPC@4 ≤ 5 μg/mL) | – | – | X (X = MPC@4 ≤ 5 μg/mL) | Y (Y = 5 μg/mL < MPC@4 ≤ 20 μg/mL) | X (X = MPC@4 ≤ 5 μg/mL) | Z (Z = MPC@4 > 20 μg/mL) | X (X = MPC@4 ≤ 5 μg/mL) | – | – | X (X = MPC@4 ≤ 5 μg/mL) | X (X = MPC@4 ≤ 5 μg/mL) | X (X = MPC@1 ≤ 5 μg/mL)
3 | COc1ccc2c(c1C(=O)O)OB(O)C1=C2COC1 [Compound 24, 4,4-dihydroxy-7-methoxy-1,3-dihydrofuro[3,4-c][1,2]benzoxaborinine-6-carboxylic acid] | – | – | – | X (X = MPC@4 ≤ 5 μg/mL) | Y (Y = 5 μg/mL < MPC@4 ≤ 20 μg/mL) | X (X = MPC@4 ≤ 5 μg/mL) | – | X (X = MPC@4 ≤ 5 μg/mL) | – | – | X (X = MPC@4 ≤ 5 μg/mL) | Y (Y = 5 μg/mL < MPC@4 ≤ 20 μg/mL) | X (X = MPC@4 ≤ 5 μg/mL) | Y (Y = 5 μg/mL < MPC@4 ≤ 20 μg/mL) | X (X = MPC@4 ≤ 5 μg/mL) | – | – | X (X = MPC@4 ≤ 5 μg/mL) | X (X = MPC@4 ≤ 5 μg/mL) | Y (Y = 5 μg/mL < MPC@1 ≤ 20 μg/mL)
